Data from PubChem BioAssay AID1346428 (National Center for Advancing Translational Sciences (NCATS), 2018).
Hit rate of the full screen: of about 48,000 compounds, about 1,200 (2.5%) were called active. About 2% were inconclusive and are not listed.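 The calls were made as follows: active = activation of at least 60% and not above a set upper limit (about 1 call in 100 departs from these limits); inconclusive = activation of 40% to 60%, or above that upper limit; inactive = activation under 40%.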 The list shows a part of the results.

molecular target: Probable G-protein coupled receptor 32 (Homo sapiens) (UniProt O75388); test: qHTS for Agonists of Human Resolvin D1 Receptor DRV1; conditions: CHO-K1 GPR32 beta-arrestin PathHunter luminescence, 90 min; at 76.9 µM; stronger effect = higher value; zero percent set by DMSO-only wells; also: 0% is about no effect
How it was run: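 Readings come from a cell-based beta-arrestin complementation format: CHO-K1 GPR32 stable cells (2,500/well) treated 90 min with compounds, then beta-Gal substrate added for 1 h before chemiluminescence imaging.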

UniProt O75388, sequence (O75388 whole entry, looked up): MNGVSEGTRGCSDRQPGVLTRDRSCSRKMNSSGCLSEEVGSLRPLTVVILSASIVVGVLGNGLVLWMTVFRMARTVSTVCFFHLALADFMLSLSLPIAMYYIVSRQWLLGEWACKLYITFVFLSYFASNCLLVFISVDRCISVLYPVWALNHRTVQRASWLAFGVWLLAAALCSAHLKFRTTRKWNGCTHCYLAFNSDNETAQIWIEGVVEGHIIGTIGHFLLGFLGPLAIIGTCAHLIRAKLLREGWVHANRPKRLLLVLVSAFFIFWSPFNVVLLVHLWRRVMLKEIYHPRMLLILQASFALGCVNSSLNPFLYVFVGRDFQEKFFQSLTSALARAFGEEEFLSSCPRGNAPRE

activation, inactive:
Cc1ccc(CN(Cc2ccco2)C(=O)COc2ccc(Cl)cc2)o1 -4.69%
CCOC(=O)c1cc(-c2ccc(F)cc2)n(CCC(=O)NCCc2ccc(C)cc2)c1C -27.4%
COc1cc(NC(=O)c2cc3ccccn3n2)cc(OC)c1OC 1.75%
CCOc1ccc(-c2cc(-c3nc(-c4cc(OC)c(OC)c(OC)c4)no3)[nH]n2)cc1 -4.81%
CCc1ccccc1NS(=O)(=O)c1ccc(NC(=O)N2CCCC2)cc1 3.22%
CC(=O)c1ccc(NC(=O)c2ccc(-c3nc(CSc4ccccc4)c(C)o3)cc2)cc1 -8.6%
COc1cc(NC(=O)c2cc(C)nc3c2c(C)nn3-c2ccccc2Cl)cc(OC)c1 -5%
Cc1ccc2cc3c(N)nn(C(=O)c4cccc(F)c4)c3nc2c1 -8.56%
CO[C@@]1(NC(=O)CSC[C@@H](N)C(=O)O)C(=O)N2C(C(=O)O)=C(CSc3nnnn3C)CS[C@@H]21 12.9%
COc1cc(CCC(=O)NCc2ccc3c(c2)CCN3C(=O)c2ccc(F)cc2)cc(OC)c1OC -12.3%
CCOC(=O)c1c(SCC(=O)Nc2cc(Cl)cc(Cl)c2)nc(=O)[nH]c1C -5.41%
COc1ccc2ncc3c(-c4ccc(C)c(C)c4)nn(CC(=O)NC4CCCC4)c3c2c1 -14.4%
COc1ccc(-c2nc3c(c(SCC(=O)N(C)c4ccccc4)n2)Cc2cc(C)ccc2O3)cc1 -8.27%
CCCCNC(=O)C1CCC(CNS(=O)(=O)c2ccc(NC(C)=O)cc2)CC1 (stereo not given) -2.59%
CCN(CC)c1ccc(NC(=O)Cn2nc(C)n3cccc3c2=O)c(C)c1 -17.5%
Cc1cccc(-n2ncc3c(N4CCN(c5ccccc5)CC4)ncnc32)c1 8.36%
Cc1ccc2nc(NCc3ccc(F)cc3)c3nncn3c2c1 -18.4%
CCc1ccccc1NC(=O)CCc1c(C)nn(-c2ccc(N3CCOCC3)nn2)c1C 0.748%
CCc1nn2c(=O)cc(COC(=O)c3ccccc3NC(=O)C3CCCCC3)nc2s1 -14.9%
CC(=O)Nc1ncc([N+](=O)[O-])s1 -60.8%
CCc1ccc(CNCc2c(C(=O)O)n(Cc3ccc(F)cc3Cl)c3cc(OC)ccc23)cc1 8.47%
COc1cc2ccccc2cc1C(=O)N1CCN(c2nc3ccc(F)cc3s2)CC1 -4.95%
O=C(c1ccc(F)cc1)n1nc(-c2ccccc2)nc1NCc1ccc(F)cc1 -8.81%
COc1ccc(NC(=O)CCc2nnc3n(CC(C)C)c(=O)c4ccccc4n23)cc1 1.6%
COc1ccccc1CCNS(=O)(=O)c1ccc(N2CCCCS2(=O)=O)cc1 8.74%
CC12CCC(CC1)C(C)(C)O2 -1%
COc1ccc(CNC(=O)c2ccc(CS(=O)Cc3ccccc3Cl)o2)cc1 (stereo not given) -6.3%
Cc1ccc(C2c3[nH]c4ccccc4c3CCN2C(=O)CCC2CCCC2)cc1 (stereo not given) -36.8%
Cc1nc2ccn(Cc3ccco3)c(=O)c2cc1C(=O)N1CCN(c2ccccc2)CC1 -13.8%
CCc1ccccc1NC(=O)C1CCCN(c2ncnc3onc(C)c23)C1 (stereo not given) 18.2%
Cc1ccc(NC(=O)Cn2ccn(-c3ccc(F)c(F)c3)c(=O)c2=O)cc1C -2.41%
O=C(c1ccc(CSc2nc3ccncc3n2Cc2ccccc2)cc1)N1CCCCCC1 21.7%
Cc1ccc(Cl)cc1-n1ncc2c(Nc3cccc(C)c3C)ncnc21 23.1%
Cc1ccc(-n2nc(C(=O)N3CCN(c4cc(Cl)ccc4C)CC3)c3c4ccccc4n(C)c3c2=O)cc1 8.75%
C=Cc1ccc(CSc2nc(-c3ccc(C)cc3)nc3c2Cc2c(CO)cnc(C)c2O3)cc1 40.3%
CC(C)c1ccc(OCC(=O)N(Cc2ccc(N(C)C)cc2)C2CCS(=O)(=O)C2)cc1 (stereo not given) -29.2%
Cc1cccc(NC(=O)C(NS(=O)(=O)c2ccc3c(c2)oc(=O)n3C)C(C)C)c1 (stereo not given) -7.35%
O=c1c(S(=O)(=O)c2cccc(Cl)c2)cn(Cc2ccccc2)c2cc(N3CCOCC3)c(F)cc12 -4.35%
O=C(Nc1cccc(C(=O)OCc2cc(=O)n3c4c(sc3n2)CCCC4)c1)c1ccccc1 -22.6%
Cc1ccc2nc(-c3cccnc3)c(Nc3ccccc3C)n2c1 -4.35%
CCCNC(=O)CCSc1nc(-c2ccc3c(c2)OCO3)cc(C(F)(F)F)n1 26.4%
Cc1cc(C)c2nc(N(Cc3cccnc3)C(=O)CCOc3ccccc3)sc2c1 6.25%
CCc1ccc(NC(=O)Cn2c(=O)n(Cc3ccco3)c(=O)c3cccnc32)cc1 14.6%
CCOc1ccc(S(=O)(=O)Nc2nc3ccccc3nc2Nc2ccc(OC)cc2)cc1 -1.05%
Cn1c(=O)n(CCCc2ccccc2)c(=O)c2c1nc1n2CCN1c1ccc(F)cc1 -11%
CCOC(=O)c1cc2c(=O)n3ccccc3nc2n(Cc2ccco2)c1=NC(=O)c1ccc(OCC)cc1 -41.3%
CCOCC(O)COc1ccc(NC(=O)CC[S+](C)C)cc1 (stereo not given) -4.28%
O=C(c1cc(-c2ccc(O)cc2)on1)N1CCN(c2ccccc2)CC1 27.9%
CCN(c1cccc(C)c1)c1ncnc2c1cnn2-c1cccc(Cl)c1 -0.397%
CCn1c(=O)cc(OCC(=O)N2CCN(c3ccc(F)cc3)CC2)c2ccccc21 29.1%
CCCCOC(=O)c1ccc(NC(=O)c2cnc3ccc(C)cn3c2=O)cc1 13.2%
COc1cc(OC)c(N(C)C(=O)c2sc3nc4n(c(=O)c3c2C)CCCC4)cc1Cl 6.38%
Cc1nn(C(=O)c2ccc(Br)cc2)c(C)c1Sc1ccccc1 5.29%
COc1ccc(CN2COc3ccc4c(-c5ccccc5)cc(=O)oc4c3C2)cc1OC -13.5%
CCN1/C(=C/C=C/c2sc3ccccc3[n+]2CC)Sc2ccccc21 -40.4%
Cc1ccc(NC(=O)Cn2c(=O)n(Cc3nc(-c4ccccc4)no3)c(=O)c3cc4c(cc32)OCO4)c(C)c1 -16%
O=C(NCc1ccccc1)c1cnc(N2CCCCC2)c2ccccc12 -13.3%
COc1ccc(Cl)cc1NC(=O)CSC1=Nc2ccccc2C2=NC(CC(=O)NCc3cccs3)C(=O)N12 (stereo not given) -3.16%
COc1ccc(CCNC(=O)CSc2n[nH]c(-c3ccccc3Cl)n2)cc1OC -9.72%
CCc1ccc(-n2c(=O)c3cccnc3n2CC(=O)NCc2ccc(C)cc2)cc1 -27.5%
Cc1ccc(NC(=O)C2=CC(c3ccc4c(c3)OCO4)=NS(=O)(=O)N2C)cc1 -1.81%
COc1cccc(Nc2nc3ccc(C)cc3nc2-n2nc(C)cc2C)c1 -4.52%
COc1ccc(Nc2c(-c3ccccn3)nc3ccc(Cl)cn23)cc1 -33.8%
COc1ccc(Cn2c(=O)[nH]c3cc(C(=O)N4CCN(c5cc(Cl)ccc5C)CC4)ccc3c2=O)cc1 -18.7%
COc1ccccc1-c1noc(-c2ccc(NC(C)C)c([N+](=O)[O-])c2)n1 -14.2%
COc1ccc(-c2nn(-c3cccc(F)c3)c3c2cnc2cc(OC)c(OC)cc23)cc1 0.86%
O=C(CCCCn1c(=O)c2ccccc2n(CC(=O)Nc2cccc(F)c2)c1=O)NCCc1ccccc1 22.3%
COc1ccc2[nH]cc(S(=O)(=O)c3ccc(C)c(C)c3)c(=O)c2c1 -4.04%
CCc1ccc(NC(=O)Cn2cc(S(=O)(=O)N3CCCC3)c(S(=O)(=O)N3CCCC3)c2)cc1 -19.6%
Cc1ccc(NC(=O)Cn2nnc(C(=O)NCc3ccc4c(c3)OCO4)c2N)cc1Cl 2.48%
COc1ccc2oc(=O)c(-c3nc(-c4cccs4)no3)cc2c1 -5.79%
CC(C)NC(=O)CCN1C(=O)c2ccccc2Sc2ncccc21 -6.67%
O=C(NC1CC(=O)N(c2ccc(F)cc2)C1)C1CC1 (stereo not given) 8.75%
CSc1nc2sc3c(c2c(=O)n1-c1ccccc1)CCC(C(C)(C)C)C3 (stereo not given) 18.7%
Cc1cc(C)cc(NC(=O)CCCc2nc(-c3ccccc3Cl)no2)c1 -1.76%
CC(=O)c1ccc(OCC(=O)N2CCCCC2)cc1 -16.2%
Cc1cc(C(=O)Nc2c(C)nc3ccccn3c2=O)ccc1[N+](=O)[O-] -10.3%
O=C(CSc1nc2c([nH]c3ccccc32)c(=O)n1-c1ccc(Cl)cc1)NCC1CCCO1 (stereo not given) -21.5%
CCOc1ccc(/C=C/c2nc(C#N)c(NCCc3ccccc3)o2)cc1 -17.6%
Cc1ccccc1Nc1c(-c2cccs2)nc2cccc(C)n12 12.5%
CC1Cc2cc(S(=O)(=O)N(Cc3ccccc3)C(C)C)ccc2N1C(=O)C1CCC1 (stereo not given) -7.59%
COc1ccccc1NC(=O)Cn1c(=O)n(CCCCCC(=O)NCc2ccccc2)c(=O)c2sccc21 18.5%
COC(=O)C(c1ccccc1Cl)N1CCc2sccc2C1 (stereo not given) -19.2%
CCOC(=O)c1c(C)oc2nc(C)nc(NCc3ccccc3OC)c12 -10.3%
CC(=O)Nc1ccc(S(=O)(=O)NC2(C(F)(F)F)NC(=O)N(CCc3ccc(F)cc3)C2=O)cc1 (stereo not given) -8.28%
